Measurements reported in PMC4336329 (PLoS ONE, 2015).
Hit rate of the full screen: of about 310,000 compounds, about 14,000 (4.5%) showed an effect of 50% or more. Effects have a minus sign here. This is one part of the list.

These compounds were tested against human ether-à-go-go-related gene (hERG) potassium channel (human, UniProt Q12809) (assay: primary screen, population patch clamp on CHO cells stably expressing hERG).
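Also: peak tail current of the secondary pulse compared with the same well before compound.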

human ether-à-go-go-related gene (hERG) potassium channel, sequence (Q12809 whole entry, looked up): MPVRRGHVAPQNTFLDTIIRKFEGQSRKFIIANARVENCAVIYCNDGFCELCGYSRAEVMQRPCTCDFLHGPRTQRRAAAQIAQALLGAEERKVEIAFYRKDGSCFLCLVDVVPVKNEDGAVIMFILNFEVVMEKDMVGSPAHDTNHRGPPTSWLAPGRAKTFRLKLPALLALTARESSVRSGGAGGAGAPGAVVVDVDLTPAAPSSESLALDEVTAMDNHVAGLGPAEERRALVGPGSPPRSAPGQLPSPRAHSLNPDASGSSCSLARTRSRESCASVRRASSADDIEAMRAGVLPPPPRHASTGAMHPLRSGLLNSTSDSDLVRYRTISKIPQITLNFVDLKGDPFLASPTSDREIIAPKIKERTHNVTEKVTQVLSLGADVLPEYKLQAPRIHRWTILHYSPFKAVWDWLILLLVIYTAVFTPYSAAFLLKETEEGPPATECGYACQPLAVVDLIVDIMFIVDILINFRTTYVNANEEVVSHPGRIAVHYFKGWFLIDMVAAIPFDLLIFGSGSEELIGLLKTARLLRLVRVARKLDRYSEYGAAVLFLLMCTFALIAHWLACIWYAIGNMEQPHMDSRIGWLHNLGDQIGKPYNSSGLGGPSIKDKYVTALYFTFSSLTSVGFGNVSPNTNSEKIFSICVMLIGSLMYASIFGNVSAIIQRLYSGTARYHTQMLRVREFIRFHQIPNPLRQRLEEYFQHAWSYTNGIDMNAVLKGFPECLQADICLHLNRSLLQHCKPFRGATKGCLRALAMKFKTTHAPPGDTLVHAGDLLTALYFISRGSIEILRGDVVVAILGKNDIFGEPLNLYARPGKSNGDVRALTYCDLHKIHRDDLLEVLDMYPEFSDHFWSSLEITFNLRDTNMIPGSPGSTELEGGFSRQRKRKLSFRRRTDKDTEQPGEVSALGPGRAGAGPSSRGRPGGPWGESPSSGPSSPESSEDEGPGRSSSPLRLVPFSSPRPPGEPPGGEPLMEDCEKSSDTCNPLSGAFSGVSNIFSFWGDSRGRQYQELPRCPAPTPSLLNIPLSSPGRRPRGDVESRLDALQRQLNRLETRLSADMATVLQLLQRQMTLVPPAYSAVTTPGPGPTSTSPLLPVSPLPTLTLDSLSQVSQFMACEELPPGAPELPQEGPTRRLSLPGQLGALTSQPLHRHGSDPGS

Going from `O=C(N/N=C/c1cn(-c2ccccc2)nc1-c1cc2ccccc2o1)c1ccccc1Br` to `O=C(N/N=C/c1cn(-c2cccs2)nc1-c1ccccc1)c1ccccc1O`, the “hERG current change (%, negative = inhibition) at 10uM” value rises from -0.551% to 25%.

First: O=C(NNC(=O)C1CCC1)c1ccc(Cl)cc1
Second: COc1ccc(C(=O)NCCc2cccc(Cl)c2)cc1OC1CCN(C(C)=O)CC1
The “hERG current change (%, negative = inhibition) at 10uM” value of the first is higher: 6.19% for the first, -16.1% for the second.

Going from `COc1ccc(CNC(=O)C2CCN(S(=O)(=O)c3c(C)noc3/C=C/N(C)C)CC2)cc1` to `O=C(NCc1ccccc1Cl)C1CCCN(S(=O)(=O)c2cnc[nH]2)C1` (centres unmarked), the “hERG current change (%, negative = inhibition) at 10uM” value rises from -17.4% to 9.11%.

Compared with `CC1CCCCC1NC(=O)CO/N=C/c1ccc(OC(F)F)cc1` (centres unmarked), `COCCCNC(=O)COc1ccc2oc3c(c2c1)CCCC3` is higher in “hERG current change (%, negative = inhibition) at 10uM” value: -43.7% for the first, 0.387% for the second.

Going from `CN(C)S(=O)(=O)c1ccc(NC(=O)CCNC(=O)c2ccc([N+](=O)[O-])cc2)cc1` to `CN(CC(=O)Nc1ccc(Cl)cc1)C(=O)CNC(=O)c1cccs1`, the “hERG current change (%, negative = inhibition) at 10uM” value rises from -12.7% to -11.5%.

Compared with `Cc1ccc(OCC(O)CN2CCN(c3ccccc3)CC2)cc1` (centres unmarked), `Cc1cccc(OCCn2nc(C(=O)O)c3ccccc3c2=O)c1` is lower in “hERG current change (%, negative = inhibition) at 10uM” value: -38.6% for the first, -40.2% for the second.

Going from `COc1cccc2cc(-c3nc4ccccc4[nH]3)c(=O)oc12` to `Cn1cccc1-c1nc2ccc(NC(=O)c3ccccc3)cc2[nH]1`, the “hERG current change (%, negative = inhibition) at 10uM” value falls from 22.6% to -39.3%.

Going from `O=C(c1[nH]ncc1-c1cccc(Br)c1)C1CO1` (centres unmarked) to `Cc1cccc(NC(=O)C2CC(=O)N(c3ccc4c(c3)OCCO4)C2)n1` (centres unmarked), the “hERG current change (%, negative = inhibition) at 10uM” value rises from 3.39% to 13.5%.

Going from `COC(C(=O)NNC(=O)CCc1ccccc1)c1ccccc1` (centres unmarked) to `COc1ccc(NC(=O)C(NC(=O)c2ccc(=O)[nH]c2)c2ccccc2)cc1` (centres unmarked), the “hERG current change (%, negative = inhibition) at 10uM” value falls from 24.1% to 1.01%.

Compared with `[NH-]S(=O)(=O)c1ccccc1.[Na+]`, `COc1ccccc1NC(=O)C(=O)N/N=C/c1cccs1` is lower in “hERG current change (%, negative = inhibition) at 10uM” value: 4.93% for the first, -4.36% for the second.

Going from `O=C(O)c1ccc2c(c1)C(=O)N(C(Cc1ccccc1)C(=O)O)C2=O` (centres unmarked) to `O=C(NCCCN1CCCC1)[C@H](CSCc1ccccc1)N1Cc2ccccc2C1=O`, the “hERG current change (%, negative = inhibition) at 10uM” value falls from -4.08% to -56.8%.

First: Cc1ccc([N+](=O)[O-])c2c1C(N1CC(C)OC(C)C1)C(C)(C)O2 (centres unmarked)
Second: Cc1cnc(NC(=O)COc2cccc3c2OC(C)(C)C3)s1
The “hERG current change (%, negative = inhibition) at 10uM” value of the first is lower: 7.7% for the first, 11.5% for the second.

Going from `Cc1nc2ccc(S(=O)(=O)NCC(=O)N(C)Cc3ccco3)cc2s1` to `COc1ccc(S(=O)(=O)NCCOc2ccc(Cl)cc2)cc1`, the “hERG current change (%, negative = inhibition) at 10uM” value falls from -7.68% to -18.5%.

Compared with `CC(=O)N(c1cccc(C(F)(F)F)c1)c1nc(/C=C/C(=O)O)cs1`, `COc1cccc(C(=O)Nc2cccc(NC(C)=O)c2)c1` is lower in “hERG current change (%, negative = inhibition) at 10uM” value: 3.07% for the first, -8.39% for the second.

Compared with `CSc1nc2ccccc2c(=O)n1C1CCOC(C)(C)C1` (centres unmarked), `Cc1ccc(/C=C/C(O)=C2/C(=O)N(C)C3(C)CC2c2ccccc2O3)cc1` (centres unmarked) is higher in “hERG current change (%, negative = inhibition) at 10uM” value: -4.02% for the first, 13.7% for the second.

Compared with `COc1ccc(OCC(=O)Nc2cccc(OC)c2)cc1`, `COc1cccc(C(=O)Nc2ccc(NC(C)=O)cc2)c1` is higher in “hERG current change (%, negative = inhibition) at 10uM” value: -6.48% for the first, 6.12% for the second.

Going from `O=C(NCc1ccccn1)C(=O)NCC1OCCCN1S(=O)(=O)c1ccc(F)cc1` (centres unmarked) to `COc1cc(OC)cc(C(=O)N/N=C(\C)CC(=O)Nc2ccccn2)c1`, the “hERG current change (%, negative = inhibition) at 10uM” value rises from 14.4% to 22.1%.

First: C=Cc1ccc(Cn2c(=O)n(C)c(=O)c3sccc32)cc1
Second: C=CCn1c(SCc2ccc(C#N)cc2)nnc1-c1ccccc1
The “hERG current change (%, negative = inhibition) at 10uM” value of the first is higher: 1.73% for the first, -57.8% for the second.

Compared with `CC(=O)N1CCN(c2nc(-c3ccco3)c3c(c2C#N)CC(C)(C)SC3)CC1`, `CC(=O)c1c(N2CCOCC2)nc(=S)n(-c2cc(C)ccc2C)c1C` is higher in “hERG current change (%, negative = inhibition) at 10uM” value: -18.9% for the first, 7.16% for the second.

Going from `CC(=O)N1C(=O)N(C(C)=O)C2C1N(C)C(=O)N2C(C)=O` (centres unmarked) to `COc1cc(C(=O)NCc2nnc(SCC(=O)NCc3ccco3)o2)cc(OC)c1OC`, the “hERG current change (%, negative = inhibition) at 10uM” value rises from 13.8% to 27.9%.

First: Cc1ccc(NC(=O)c2sc(N)nc2-c2ccc([N+](=O)[O-])cc2)cc1C
Second: O=C(N/N=C/c1ccccc1Cl)c1[nH]c2ccc(Br)cc2c1-c1ccccc1
The “hERG current change (%, negative = inhibition) at 10uM” value of the first is lower: 8.18% for the first, 13% for the second.

Going from `O=C(c1ccccc1)N1CCN(C2c3cccc4cccc(c34)C2NS(=O)(=O)c2ccccc2)CC1` (centres unmarked) to `Cc1cc(Br)ccc1OCC(=O)N1CCCCCC1`, the “hERG current change (%, negative = inhibition) at 10uM” value rises from -21.9% to -12.1%.
